Experimental data published in patent US20250213711A1, “ANTI-CANAG ANTIBODY CONJUGATE” (IKSUDA THERAPEUTICS LIMITED, priority 2022, published 2025).
“Also recorded” adds a separate entry of the source.

What was measured:
[1] = system: CanAg positive Colo205 cells; assay: Flow cytometry (FACS) binding of humanised antibodies to Colo205 cells; design: species or system human; details: for Binding EC50 (μg/ml) MFI curve: 4° C. 60 minutes
Protocol: The affinity of the nine humanised antibody combinations for CanAg positive Colo205 cells was evaluated by flow cytometry as follows. 20×10^5 Colo205 cells were aliquoted per well and washed once with FACS buffer (2% FBS in PBS). Humanised antibodies and isotype control antibodies (Anti-HEL-Human-IgG1 (N297A), catalog: B109801, brand: BIOINTRON) were diluted with FACS buffer diluted (8 concentrations starting at 100 μg/ml with 2-fold dilutions), then 100 μL was added to each well with cells. Cells were incubated at 4° C. for 60 minutes followed by washing with FACS buffer twice. Secondary antibody AF488 Goat anti-human IgG (H+L) (catalog: A11013, brand: Invitrogen) was diluted 1:1000 with FACS buffer, then 100 uL added to each well and incubated at 4° C. for 30 minutes. After the incubation, cells were re-suspended in 200 uL FACS buffer for flow cytometry analysis. MFI (mean fluorescence intensity) was used to calculate EC50.

BxPC-3 cells = assay: Cell Titre-Glo (CTG) in vitro activity assay, BxPC-3; assay type: cell-based, human; details: 72 h (FIG. 12)
Protocol: (§1) In vitro activity was assessed using the luminescence-based Cell Titre-Glo (CTG) assay (Promega, No: G7572), which quantitates the amount of ATP present as a measure of viable cells. Specificity of cell killing was shown by incubating cells with a non-binding ADC control composed of the same payload.
(§2) Anti-CanAg ADC in vitro activity was evaluated in the colorectal cancer cell lines, Colo-205 (ATCC: CCL-222) and HT-29 (ATCC: HTB-38), the pancreatic adenocarcinoma cell line, BxPC-3 (ATCC: CRL-1687), and N87 gastric carcinoma (ATCC: CRL-5822). The ADC non-binding control was an anti-CD19 ADC (DAR 2.0) composed of the same linker-drug combination as ADC-3.
(§3) Cells were trypsinised and seeded to 96 well microplates in appropriate complete medium (Colo-205, BxPC-3 and N87-RPMI-1640 with 20% heat inactivated fetal bovine serum (FBS); HT-29-McCoy's-5A medium with 20% heat inactivated FBS) for 24 h at 37° C., 5% CO2. Cells were seeded at density of 4000 (Colo-205) or 5000 (BxPC-3, HT-29, N87) cells per well, in a volume of 100 μL. […]
(§4) For the comparison of ADC-3 with Cantuzumab ravtansine and a non-binding ADC control cells were trypsinised and seeded to 96 well microplates in appropriate complete medium (RPMI-1640 with 10% FBS) for 24 h at 37° C., 5% CO2. […] Then the plate was incubated for 20 minutes at RT followed by luminescence measurements.

N87 cells = assay: Cell Titre-Glo (CTG) in vitro activity assay, N87; assay type: cell-based, human; details: 72 h (FIG. 14)
Protocol: as §1, §2, §3, §4

HT-29 cells = assay: Cell Titre-Glo (CTG) in vitro activity assay, HT-29; assay type: cell-based, human; details: 72 h (FIG. 13)
Protocol: as §1, §2, §3, §4

Colo-205 cells = assay: Cell Titre-Glo (CTG) in vitro activity assay, Colo-205; assay type: cell-based, human; details: 72 h, 20% heat inactivated FBS (FIG. 11)
Source text: The ADC non-binding control was an anti-CD19 ADC (DAR 2.0) composed of the same linker-drug combination as ADC-3.

BxPC3 xenograft = assay: In vivo efficacy study in BxPC3 xenograft model; design: species or system mice; details: day 29
Protocol: Conjugate doses of 0.4 mg/kg (5.3 nmol of conjugated drug/kg), 1 mg/kg (13 nmol of conjugated drug/kg) for ADC-2 and ADC-3, and 0.2 mg/kg (5.3 nmol of conjugated drug/kg) and 0.5 mg/kg (13 nmol of conjugated drug/kg) for Cantuzumab ravtansine were used.

Colo-205 xenograft = details: single intravenous dose 1 mg/kg
Protocol: Mice were subcutaneously inoculated into the right flank with 5×10^6 Colo-205 cells in 0.2 mL of DPBS mixed 1:1 with BD Matrigel. […] Tumour size was measured thrice weekly in two dimensions using a calliper, and the volume was expressed in mm^3 using the formula: V=0.5 a×b^2 where a and b are the long and short diameters of the tumour, respectively (see FIGS. 17A, 18 A and 19 A). The tumour size was then used for calculations of TGI (%) values (see Table 5). TGI, representing antitumor effectiveness, were calculated using the formula TGI (%)=[1-(Vtreat-t−Vtreat-1)/(Vcontrol-t−Vcontrol-1)]×100, where Vtreat-1 and Vcontrol-1 are the mean volumes of the treated and control groups on grouping day; Vtreat-t and Vcontrol-t are the mean volumes of the treated and control groups on a given day. Animals were euthanized when tumour volumes reached 2000 mm^3. Body weight was also measured thrice weekly as a measure of compound toxicity (see FIGS. 17 B, 18 B and 19 B).

B1: HC1 + LC1: humanised anti-CanAg (C242) antibody, heavy chain HC1 (SEQ ID NO 5) and light chain LC1 (SEQ ID NO 8) (antibody)
heavy: QVQLVQSGAEVKKPGASVKVSCKASDYTFTYYGINWVRQAPGQGLEWMGWIDTTTGEPNYAQKLQGRVTFTLDTSASTAYMELRSLRSDDTAVYYCARRGPYNWYFDVWGQGTLVTVSS[human IgG1 constant region not shown]
light: DIVMTQTPLSLPVTPGEPASISCRSSKSLLHSNGNTYLYWYLQKPGQSPQLLIYRMSNRASGVPDRFSGSGSGTDFTLKISRVEAEDVGVYYCLQHLEYPFTFGPGTKVDIKRTVAAPSVFIFPPSDEQLKSGTASVVCLLNNFYPREAKVQWKVDNALQSGNSQESVTEQDSKDSTYSLSSTLTLSKADYEKHKVYACEVTHQGLSSPVTKSFNRGEC
- affinity for CanAg positive Colo205 cells (in words) [1]: comparable affinity
- Binding EC50 (μg/ml) MFI curve [1]: 0.2737 µg/mL

B2: HC2 + LC1: humanised anti-CanAg (C242) antibody, heavy chain HC2 (SEQ ID NO 6) and light chain LC1 (SEQ ID NO 8) (antibody)
heavy: QVQLVQSGAEVKKPGASVKVSCKASDYTFTYYGMNWVRQAPGQGLEWMGWIDTTTGEPSYAQKFQGRVTFTLDTSASTVYMELSSLRSEDTAVYYCARRGPYNWYFDVWGQGTLVTVSS[human IgG1 constant region not shown]
light: DIVMTQTPLSLPVTPGEPASISCRSSKSLLHSNGNTYLYWYLQKPGQSPQLLIYRMSNRASGVPDRFSGSGSGTDFTLKISRVEAEDVGVYYCLQHLEYPFTFGPGTKVDIKRTVAAPSVFIFPPSDEQLKSGTASVVCLLNNFYPREAKVQWKVDNALQSGNSQESVTEQDSKDSTYSLSSTLTLSKADYEKHKVYACEVTHQGLSSPVTKSFNRGEC
- affinity for CanAg positive Colo205 cells (in words) [1]: comparable affinity
- Binding EC50 (μg/ml) MFI curve [1]: 0.3506 µg/mL

B3: ADC-2 (conjugate)
heavy: QVQLVQSGAEVKKPGASVKVSCKASDYTFTYYGINWVRQAPGQGLEWMGWIDTTTGEPNYAQKLQGRVTFTLDTSASTAYMELRSLRSDDTAVYYCARRGPYNWYFDVWGQGTLVTVSS[human IgG1 constant region not shown]
light: DIVMTQTPLSLPVTPGEPASISCRSSKSLLHSNGNTYLYWYLQKPGQSPQLLIYRMSNRASGVPDRFSGSGSGTDFTLKISRVEAEDVGVYYCLQHLEYPFTFGPGTKVDIKRTVAAPSVFIFPPSDEQLKSGTASVVCLLNNFYPREAKVQWKVDNALQSGNSQESVTEQDSKDSTYSLSSTLTLSKADYEKHKVYACEVTHQGLSSPVTKSFNRGECGGGGGGGCVIM
- cell killing (BxPC-3 cells): 100%
- in vitro activity on N87 cells (in words) (N87 cells): very limited activity; also recorded: no specific activity
- cell killing (HT-29 cells): 100%
- cell killing (Colo-205 cells): 100%
- TGI [%] at 29 or 32* day (BxPC3 xenograft; single intravenous dose 0.4 mg/kg (5.3 nmol/kg)): 66.7%
- TGI [%] at 29 or 32* day (BxPC3 xenograft; single intravenous dose 1 mg/kg (13 nmol/kg)): 107%
- toxicity (body weight) (Colo-205 xenograft; Colo-205 xenograft mice): no observable toxicity
- TGI [%] at 15 day (Colo-205 xenograft; Colo-205 xenograft, CB17 SCID mice, day 15): 103%

B4: HC3 + LC1: humanised anti-CanAg (C242) antibody, heavy chain HC3 (SEQ ID NO 7) and light chain LC1 (SEQ ID NO 8) (antibody)
heavy: QVQLVQSGAEVKKPGASVKVSCKASDYTFTYYGINWVRQATGQGLEWMGWIDTTTGEPTYAQKFQGRVTFTLETSISTAYMELSSLRSEDTAVYYCARRGPYNWYFDVWGAGTLVTVSS[human IgG1 constant region not shown]
light: DIVMTQTPLSLPVTPGEPASISCRSSKSLLHSNGNTYLYWYLQKPGQSPQLLIYRMSNRASGVPDRFSGSGSGTDFTLKISRVEAEDVGVYYCLQHLEYPFTFGPGTKVDIKRTVAAPSVFIFPPSDEQLKSGTASVVCLLNNFYPREAKVQWKVDNALQSGNSQESVTEQDSKDSTYSLSSTLTLSKADYEKHKVYACEVTHQGLSSPVTKSFNRGEC
- affinity for CanAg positive Colo205 cells (in words) [1]: comparable affinity
- Binding EC50 (μg/ml) MFI curve [1]: 0.2664 µg/mL
